# Reference: PubChem BioAssay AID588855 (National Center for Advancing Translational Sciences (NCATS), 2011)
# The campaign covered roughly 410,000 compounds. About 5,000 (1.2%) were called active. Inconclusive results, whose numbers are uncertain, are shown with a selection of clear calls. Calls follow the shape of the dose curve; as a rule, active = well fitted inhibition curve with a large enough effect; inconclusive = small, poorly fitted or top-dose-only effect; inactive = no such curve, though single readings can be large or run the other way. Potencies beside an inconclusive call are fits to weak or partial responses and may not hold up.
# Test: qHTS for Inhibitors of TGF-b; also: nearly all actives have a fitted effect of over 65% in size
# Conditions: HepG2 CAGA-GFP TGF-b/SMAD3 reporter, GFP fluorescence, 18 h, TGF-beta stimulated, 500 pg/mL final; series mostly up to 46.1 µM
# Procedure, shortened: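 Using HEPG2 CAGA-GFP reporter cells at 1000 cells/well, we pinned test compounds, stimulated with recombinant TGF-beta (500 pg/mL final) and measured total well GFP after 18 h.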
# Potency is read from the fitted curve at half-maximal effect; tags tell the direction and shape of the fitted curve.
row,SMILES,Potency
1,CCn1c2ccccc2c2cc(NC(=O)COc3cc(C)ccc3C)ccc21,inactive
2,Cc1cccc(Cn2c(COc3ccccc3)nc3ccccc32)c1,"inconclusive: 25.1 µM [inhibitor, single point]"
3,CCCCN(CC)C(=O)Cc1ccc(Br)cc1,"inconclusive: 6.31 µM [inhibitor, single point]"
4,Cc1ccc2c(c1)cc(C(=O)NCc1ccccc1C)n2C,inactive
5,CN(c1ccccc1)c1ccc(/C=C/[N+](=O)[O-])cc1,"inconclusive: 2.82 µM [inhibitor, full curve, poor fit]"
6,CC(C)Oc1ccc(CNC(=O)C2CCN(Cc3cc4ccccc4n3Cc3ccccc3)CC2)cc1,inactive
7,CCOc1ccc(CNC(=O)c2ccc3c(c2)nc2n3CCCCC2)cc1,"inconclusive: 0.282 µM [inhibitor, full curve, poor fit]"
8,CC1CCN(c2ccc(S(=O)(=O)N3CCC(C)CC3)cc2N)CC1,"inconclusive: 20 µM [inhibitor, single point]"
9,N#C/C(=C\C=C\c1ccccc1[N+](=O)[O-])c1nc(-c2ccc3c(c2)OCO3)cs1,inactive
10,COc1cc(/C=N/NC(=O)c2cccnc2)ccc1OCC(=O)Nc1ccc(C)cc1,inactive
11,CCCS(=O)(=O)NC(=O)C1(C)CCN(C(=O)c2cccc(OC(F)(F)F)c2)C1 (configuration not stated),inactive
12,C[C@H](CO)N1C[C@H](C)[C@@H](CN(C)C(=O)Nc2ccc3c(c2)OCO3)Oc2c(NC(=O)Nc3ccc(C(F)(F)F)cc3)cccc2C1=O,"inconclusive: 35.5 µM [inhibitor, partial curve, poor fit]"
13,COC(=O)[C@@H](NC(=O)Nc1ccccc1F)C(C)C,"inconclusive: 35.5 µM [inhibitor, partial curve, poor fit]"
14,CCOC(=O)Cc1csc(NC(=O)CCCCCN2C(=O)c3ccccc3C2=O)n1,"inconclusive: 2.82 µM [inhibitor, full curve]"
15,O=C(NCCc1csc(-c2ccc(F)cc2)n1)c1cccc(F)c1,"inconclusive: 12.6 µM [inhibitor, partial curve, poor fit]"
16,CCCCS(=O)(=O)Nc1ccc(Cc2ccncc2)cc1,"inconclusive: 35.5 µM [inhibitor, single point]"
17,CC(CC(=O)N1CCN(c2ccccc2)CC1)S(=O)(=O)c1ccc2c(c1)NC(=O)CO2 (configuration not stated),inactive
18,CCO[C@H]1OC(C(=O)NC2CC2)=C[C@@H](c2coc3ccccc3c2=O)[C@@H]1CCCO,"inconclusive: 5.01 µM [inhibitor, full curve, poor fit]"
19,Cc1cc(C)c2nc(N3C(=O)C(O)=C(C(=O)c4ccco4)C3c3cccc(O)c3)sc2c1 (configuration not stated),"inconclusive: 10 µM [inhibitor, single point]"
20,COc1ccc(/C=N\NC(=O)c2ccccc2Br)cc1COc1ccccc1,"inconclusive: 10 µM [inhibitor, partial curve, poor fit]"
21,CCc1cccc(CC)c1NC(=S)NCCc1c(C)[nH]c2ccc(C)cc12,active: 12.6 µM

row,SMILES,Potency
1,NCCNC[C@@H]1COC2(CCCCCCCCCCC2)O1,"inconclusive: 22.4 µM [inhibitor, single point]"
2,CSc1nc2cc(Oc3cccc(Cl)c3Cl)c(Cl)cc2[nH]1,"inconclusive: 35.5 µM [inhibitor, single point]"
3,CCOC(=O)c1ccc(NC(=S)NCCc2ccc(F)cc2)cc1,inactive
4,CC(=O)Nc1cccc(NC(=O)CCn2cnc3cc(C)c(C)cc32)c1,"inconclusive: 35.5 µM [inhibitor, single point]"
5,Cc1cc(/C=N/n2cnnc2)c(C)n1-c1ccc(OCc2ccccc2F)cc1,active: 11.2 µM
6,Cc1nc(N2CCN(C(=O)c3cnccn3)CC2)c2c3c(sc2n1)CC(C(C)(C)C)CC3 (configuration not stated),inactive
7,O=C(NCc1cccs1)c1ccc(CSc2nc3ccncc3n2Cc2ccccc2F)cc1,active: 8.91 µM
8,COc1ccc(C2CC(O)(c3ccccc3)Oc3cc(C)c(Cl)c(C)c32)cc1 (configuration not stated),"inconclusive: 22.4 µM [inhibitor, single point]"
9,Cc1ccc(S(=O)(=O)CCN2CCN(c3ccccc3)CC2)cc1,"inconclusive: 3.98 µM [inhibitor, single point]"
10,CN(Cc1ccccc1)C(=O)c1ccc(NC(=O)Cc2ccc(NC(=O)C3CCCN(C(=O)C4CCCCC4)C3)cc2)cc1 (configuration not stated),"inconclusive: 28.2 µM [inhibitor, single point]"
11,CC12CC(c3ccccc3O1)N(C(=O)c1ccco1)C(=S)N2c1ccc(F)cc1 (configuration not stated),"inconclusive: 31.6 µM [inhibitor, single point]"
12,COc1ccc(N2CC(NC(=O)/C=C\c3ccccc3)CC2=O)cc1OC (configuration not stated),inactive
13,CCOC(=O)c1nn(-c2ccc(OC)cc2)c(=O)c2c(N)scc12,"inconclusive: 35.5 µM [inhibitor, partial curve, poor fit]"
14,CCOc1ccc(N2CC(NS(=O)(=O)c3cccs3)CC2=O)cc1 (configuration not stated),inactive
15,CC1CCN(C(=O)CCc2nnc3ccc(N4CCC5(CC4)OCCO5)nn23)CC1,inactive
16,O=S(=O)(NCC1CCCO1)c1ccc(-c2ccc(S(=O)(=O)NCC3CCCO3)cc2)cc1 (configuration not stated),"inconclusive: 0.447 µM [inhibitor, full curve, poor fit]"
17,O=C1/C(=C\c2cc(Br)cc(Br)c2O)SC(=S)N1Cc1ccccc1,"inconclusive: 5.62 µM [inhibitor, single point]"
18,CCCc1ccc(S(=O)(=O)N2CCN(Cc3ccco3)CC2)cc1,"inconclusive: 17.8 µM [inhibitor, single point]"
19,Cc1cccc(NC(=O)[C@H](Cc2c[nH]c3ccccc23)NC(=O)[C@@H]2Cc3ccccc3CN2)c1,inactive
20,Cc1ccc([C@@H]2C[C@H]3[C@@H](CN2S(=O)(=O)c2ccc(C)cc2)C(=O)C[C@@H](c2ccc(C)cc2)N3S(=O)(=O)c2ccc(Cl)cc2)cc1,"inconclusive: 17.8 µM [inhibitor, single point]"
21,CCNC(=O)N1CCN(/[N+]([O-])=N/Oc2ccc([N+](=O)[O-])cc2[N+](=O)[O-])CC1,"inconclusive: 22.4 µM [inhibitor, partial curve, poor fit]"
